PubChem BioAssay AID485344 (National Center for Advancing Translational Sciences (NCATS), 2010)
Among all 340,000 compounds or so, about 6,900 (2%) were called active. No stated cut-off is given here; in the data, active means inhibition above about 30%; inactive means below that, where a call was filed. The entries are a selection whose mix differs from that of the whole data set. The source gives no active or inactive call for entries shown without one.

molecular target: D(2) dopamine receptor (Homo sapiens) (UniProt P14416); experiment: HTS Assay for Allosteric Antagonists of the Human D2 Dopamine Receptor: Primary Screen for Antagonists; conditions: HEK293 TREx D2 cells, calcium flux, dopamine EC80; at 10 µM; stronger effect = higher value; further: 0% is about no effect
How it was run: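 Read-out: kinetic calcium fluorescence (1 cycle/s) in inducible HEK293 T-REx D2 cells after an EC80 dopamine addition that followed 180 s compound preincubation. Loss of the dopamine response indicates antagonism.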

Chain of UniProt P14416 (P14416 whole entry, looked up): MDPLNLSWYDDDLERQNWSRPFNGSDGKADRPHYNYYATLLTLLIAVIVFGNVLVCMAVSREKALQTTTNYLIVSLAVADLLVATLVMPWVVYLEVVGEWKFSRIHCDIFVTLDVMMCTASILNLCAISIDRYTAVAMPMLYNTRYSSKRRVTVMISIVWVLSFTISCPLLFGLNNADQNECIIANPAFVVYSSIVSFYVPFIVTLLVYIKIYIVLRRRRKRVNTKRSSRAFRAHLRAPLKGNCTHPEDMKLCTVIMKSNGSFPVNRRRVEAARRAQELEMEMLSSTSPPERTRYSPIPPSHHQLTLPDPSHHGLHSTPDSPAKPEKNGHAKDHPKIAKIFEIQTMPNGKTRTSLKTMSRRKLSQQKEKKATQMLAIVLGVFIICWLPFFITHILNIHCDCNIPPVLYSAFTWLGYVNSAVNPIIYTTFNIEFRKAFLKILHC

| Compound | inhibition |
| --- | --- |
| COc1ccc(-c2cnc(C)o2)cc1S(=O)(=O)Nc1ccc(C)c(N(C)C)c1 | 6.06% |
| COc1ccc2c(c1)c1c(c(=O)n(-c3ccccc3C)c(=O)n1CC(=O)Nc1c(C)cccc1C)n2C | 6.81% |
| CSc1cccc(CN2CCN(Cc3ccccc3)C(CCO)C2)c1 (centres undefined) | active: 38.9% |
| O=c1c2[nH]c3ccccc3c2nc(SCc2cccc(F)c2)n1-c1ccccc1 | 6.65% |
| O=C(O)CCc1ccc(-c2ccccc2)n1CC(=O)Nc1ccccc1C(F)(F)F | -0.0853% |
| O=C(CSc1nc2c(cnn2-c2cccc(Cl)c2)c(=O)[nH]1)NCC1CCCO1 (centres undefined) | active: 38.7% |
| COc1ccccc1CNC(=O)CCCCn1c(=O)c2ccccc2n(CC(=O)Nc2cc(Cl)ccc2C)c1=O | 11.9% |
| c1ccc2c(c1)nnn2-c1ncnc2sc3c(c12)CCCC3 | active: 30.8% |
| COC(=O)c1ccc(NC(=O)C2CCN(C(=O)c3ccc(F)cc3)CC2)cc1 | -12.8% |
| CCS(=O)(=O)CCSc1nc(-c2ccc(Br)cc2)cc(-c2ccccc2)c1C#N | 9.27% |
| CCOc1cc(C(=O)Nc2ccc(-c3nc4ncccc4o3)cc2C)cc(OCC)c1OCC | -14.4% |
| Cc1cccc(NC(=O)CCn2nc(-c3ccccc3)c3ccccc3c2=O)c1 | -12.5% |
| N#Cc1cccc(NC(=O)C2CCN(c3ncccn3)CC2)c1 | -7.9% |
| CC1=C(C(=O)Nc2ccccc2C)C(c2cccnc2)n2nc(SCc3ccccc3F)nc2N1 (centres undefined) | 17.2% |
| O=C(CCCc1ccccc1)Nc1ccnn1C1CCN(Cc2ccc(Cl)cc2)CC1 | active: 35.4% |
| COC(=O)c1c(NC(=O)COc2cc(C)ccc2C(C)C)sc2c1CCC(C)C2 (centres undefined) | -2.16% |
| Cc1cc(C)c(S(=O)(=O)n2cnc(C)c2)c(C)c1 | -1.2% |
| CC(=O)c1ccc(N2CCN(S(=O)(=O)c3ccc(-c4cc(C)no4)s3)CC2)cc1 | 1.55% |
| Cc1ccc(-c2ccc(=O)n(CC(=O)NCc3ccc(F)cc3)n2)cc1 | -17.4% |
| CCC(C)NC(=O)C1CCC(CNS(=O)(=O)c2ccc(Cl)cc2)CC1 (centres undefined) | -4.99% |

| Compound | inhibition |
| --- | --- |
| COc1ccc(-c2nc3n(n2)C(=O)CC(c2ccc(Cl)cc2)S3)cc1 (centres undefined) | 0.995% |
| CCn1c2ccccc2c2cc(NC(=O)COc3ccc(C)c(C)c3)ccc21 | -12.1% |
| CCOC(=O)c1ccc(NC(=O)CC2NCCNC2=O)cc1 (centres undefined) | -0.559% |
| Cc1ccc2nc3c(cc(C(=O)NC4CCCCC4)c(=N)n3C(C)C)c(=O)n2c1 | -0.407% |
| CCOC(=O)C1CCN(S(=O)(=O)c2ccc3c(c2)NC(=O)C(C)C(=O)N3)CC1 (centres undefined) | 23.1% |
| O=S(=O)(c1ccc2nc(COc3ccc(Cl)cc3Cl)[nH]c2c1)N1CCOCC1 | active: 38.3% |
| CCOC(=O)c1cc(-c2ccc(C)cc2)n(CCC(=O)Nc2ccc(OC)c(OC)c2)c1C | -6.9% |
| COCCCNC(=O)Cn1cnc2sc(C)c(S(=O)(=O)N3CCN(c4ccccc4OC)CC3)c2c1=O | 7.35% |
| CCN1CCN(C(=O)c2ccc3c(c2)N(Cc2cccc(F)c2)C(=O)c2ccccc2S3)CC1 | -11.7% |
| CCCCCN1C(C(=O)c2ccccc2)=C(NC(=O)c2ccccc2Cl)c2ccccc2S1(=O)=O | -9.66% |
| COc1ccc(CCNC(=O)c2ccc3c(c2)N(Cc2ccc(Cl)cc2)CCS3)c(OC)c1 | 2.96% |
| Cc1cccc(-c2nc(SCC(=O)Nc3ccc4c(c3)OCO4)c(-c3ccccc3)[nH]2)c1 | 10.4% |
| O=C(CCn1c(=O)c2cccn2c2cccnc21)N1CCN(c2cccc(Cl)c2)CC1 | -8.56% |
| CN1C(=O)Cc2cc(S(=O)(=O)NCCc3ccccc3)ccc21 | 2.96% |
| COc1ccc(NC(=O)C2CCCN2S(=O)(=O)c2ccc3nc(-c4ccccc4)[nH]c3c2)cc1 (centres undefined) | 15.4% |
| CCN(CC)CCNC(=O)C1c2cc(OC)c(OC)cc2C(=O)N(C)C1c1cccs1 (centres undefined) | active: 35.1% |
| CC(C)CCSc1nc2c(c(=O)[nH]c(=O)n2C)n1CCCc1ccccc1 | active: 35.3% |
| O=C(Cn1c(=O)oc2cc(S(=O)(=O)NC3CCCC3)ccc21)Nc1ccc(F)c(F)c1 | -1.85% |
| Cc1ccc(Cl)cc1N1CCN(S(=O)(=O)c2cc3[nH]c(=O)c(=O)[nH]c3cc2C)CC1 | -16% |
| CCOc1ccccc1NC(=O)Cn1nnc(C(=O)Nc2ccc(C)c(C)c2)c1N | 7.33% |

| Compound | inhibition |
| --- | --- |
| Cc1c(C(=O)N2CCC(C)CC2)c(S(=O)(=O)N2CCN(c3ccc(Cl)cc3)CC2)c(C)n1C | -11.5% |
| Cc1ccc(Cl)cc1N1CCN(C(=O)C2CCN(Cc3nc(-c4ccc(Cl)cc4)oc3C)CC2)CC1 | 5.38% |
| CC(C)(C)OC(=O)N1CCC(c2c(C(=O)NC3CCCCC3)cnn2-c2cccc(Cl)c2)CC1 | 2.56% |
| Cn1nccc1C(=O)NCc1ccc2c(c1)CCN2C(=O)c1ccccc1 | 12.1% |
| COc1ccc(-c2nc3sc(CCNC(=O)C(=O)Nc4c(C)cccc4C)c(C)n3n2)cc1 | 6.28% |
| CC1CCCN(CCCNC(=O)CN2C(=O)CSc3ccc(S(=O)(=O)N4CCOCC4)cc32)C1 (centres undefined) | 11.2% |
| COc1ccc(N2CCN(C(=O)c3oc4ccccc4c3NC(=O)c3ccccc3OC)CC2)cc1 | -13.8% |
| CCOC(=O)c1ccc(NC(=O)CN2C(=O)COc3ccc(Cl)cc32)cc1 | 12.3% |
| CC1=C(C(=O)OC2CCCC2)C(c2ccccc2Cl)CC(=O)N1 (centres undefined) | 1.95% |
| Cc1cccc(N2CCN(C3(c4ccccc4)C(=O)c4ccccc4C3=O)CC2C)c1 (centres undefined) | 13.9% |
| O=C(CCN1CCN(c2ccccn2)CC1)Nc1ccc(F)cc1 | active: 67.4% |
| Cc1ccc(C(c2sc3nc(-c4ccco4)nn3c2O)N2CCN(Cc3ccccc3)CC2)cc1 (centres undefined) | -21.5% |
| COc1ccccc1CNC(=O)c1cnn2c(C)c(Cc3ccc(F)cc3)c(C)nc12 | -26.3% |
| COc1cccc(C2CC(=O)Nc3c2c(=O)nc2c(C)cccn32)c1OC (centres undefined) | 3.86% |
| Cc1ccc(-c2nc3cc(Cl)ccc3o2)cc1NC(=O)COc1ccc(F)cc1 | -20.2% |
| CCOc1ccc(NC(=O)Cn2c(=O)n(CCC(=O)NCCc3ccccc3)c(=O)c3ccccc32)cc1 | -2.7% |
| CCOc1ccc(NC(=O)CC2C(=O)N(c3cccc(C)c3)C(=O)N2Cc2cccnc2)cc1 (centres undefined) | 10.7% |
| CCCn1cc(S(=O)(=O)c2ccc(CC)cc2)c(=O)c2ccccc21 | -11.2% |
| Cc1ccc(N(C)C(=O)C2CCCN(c3ncnc4c3nc3n4CCCCC3)C2)cc1C (centres undefined) | 25.4% |
